Among all 360,000 compounds or so, about 16,000 (4.4%) were called active. Inconclusive results, whose numbers are uncertain, are shown with a selection of clear calls. Calls follow the shape of the dose curve; as a rule, active = well fitted inhibition curve with a large enough effect; inconclusive = small, poorly fitted or top-dose-only effect; inactive = no such curve, though single readings can be large or run the other way. Potencies of inconclusive entries are doubtful fits and often do not repeat.
target: Bromodomain adjacent to zinc finger domain protein 2B (Homo sapiens) (UniProt Q9UIF8); assay: qHTS Assay for Inhibitors of BAZ2B; conditions: AlphaScreen BAZ2B-H3K14Ac peptide displacement; activity change, negative = inhibition: at 114 µM (top of the series); also: nearly all actives have a fitted effect of over 60% in size
How it was run: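 Protein-peptide AlphaScreen: BAZ2B 50 nM, b-H3K14Ac 50 nM, 1x PBS pH 7.4 + 0.01% Tween-20. Preincubation 30 min RT; cpd 30 min RT (top 110 uM); beads 20 min RT, light-protected.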
% is scaled to controls: 0 for no effect and ±100 for the full control effect; potency is read from the fitted curve at half-maximal effect; tags tell the direction and shape of the fitted curve.

Chain of UniProt Q9UIF8 (Q9UIF8 whole entry, looked up, the tested form may be a part): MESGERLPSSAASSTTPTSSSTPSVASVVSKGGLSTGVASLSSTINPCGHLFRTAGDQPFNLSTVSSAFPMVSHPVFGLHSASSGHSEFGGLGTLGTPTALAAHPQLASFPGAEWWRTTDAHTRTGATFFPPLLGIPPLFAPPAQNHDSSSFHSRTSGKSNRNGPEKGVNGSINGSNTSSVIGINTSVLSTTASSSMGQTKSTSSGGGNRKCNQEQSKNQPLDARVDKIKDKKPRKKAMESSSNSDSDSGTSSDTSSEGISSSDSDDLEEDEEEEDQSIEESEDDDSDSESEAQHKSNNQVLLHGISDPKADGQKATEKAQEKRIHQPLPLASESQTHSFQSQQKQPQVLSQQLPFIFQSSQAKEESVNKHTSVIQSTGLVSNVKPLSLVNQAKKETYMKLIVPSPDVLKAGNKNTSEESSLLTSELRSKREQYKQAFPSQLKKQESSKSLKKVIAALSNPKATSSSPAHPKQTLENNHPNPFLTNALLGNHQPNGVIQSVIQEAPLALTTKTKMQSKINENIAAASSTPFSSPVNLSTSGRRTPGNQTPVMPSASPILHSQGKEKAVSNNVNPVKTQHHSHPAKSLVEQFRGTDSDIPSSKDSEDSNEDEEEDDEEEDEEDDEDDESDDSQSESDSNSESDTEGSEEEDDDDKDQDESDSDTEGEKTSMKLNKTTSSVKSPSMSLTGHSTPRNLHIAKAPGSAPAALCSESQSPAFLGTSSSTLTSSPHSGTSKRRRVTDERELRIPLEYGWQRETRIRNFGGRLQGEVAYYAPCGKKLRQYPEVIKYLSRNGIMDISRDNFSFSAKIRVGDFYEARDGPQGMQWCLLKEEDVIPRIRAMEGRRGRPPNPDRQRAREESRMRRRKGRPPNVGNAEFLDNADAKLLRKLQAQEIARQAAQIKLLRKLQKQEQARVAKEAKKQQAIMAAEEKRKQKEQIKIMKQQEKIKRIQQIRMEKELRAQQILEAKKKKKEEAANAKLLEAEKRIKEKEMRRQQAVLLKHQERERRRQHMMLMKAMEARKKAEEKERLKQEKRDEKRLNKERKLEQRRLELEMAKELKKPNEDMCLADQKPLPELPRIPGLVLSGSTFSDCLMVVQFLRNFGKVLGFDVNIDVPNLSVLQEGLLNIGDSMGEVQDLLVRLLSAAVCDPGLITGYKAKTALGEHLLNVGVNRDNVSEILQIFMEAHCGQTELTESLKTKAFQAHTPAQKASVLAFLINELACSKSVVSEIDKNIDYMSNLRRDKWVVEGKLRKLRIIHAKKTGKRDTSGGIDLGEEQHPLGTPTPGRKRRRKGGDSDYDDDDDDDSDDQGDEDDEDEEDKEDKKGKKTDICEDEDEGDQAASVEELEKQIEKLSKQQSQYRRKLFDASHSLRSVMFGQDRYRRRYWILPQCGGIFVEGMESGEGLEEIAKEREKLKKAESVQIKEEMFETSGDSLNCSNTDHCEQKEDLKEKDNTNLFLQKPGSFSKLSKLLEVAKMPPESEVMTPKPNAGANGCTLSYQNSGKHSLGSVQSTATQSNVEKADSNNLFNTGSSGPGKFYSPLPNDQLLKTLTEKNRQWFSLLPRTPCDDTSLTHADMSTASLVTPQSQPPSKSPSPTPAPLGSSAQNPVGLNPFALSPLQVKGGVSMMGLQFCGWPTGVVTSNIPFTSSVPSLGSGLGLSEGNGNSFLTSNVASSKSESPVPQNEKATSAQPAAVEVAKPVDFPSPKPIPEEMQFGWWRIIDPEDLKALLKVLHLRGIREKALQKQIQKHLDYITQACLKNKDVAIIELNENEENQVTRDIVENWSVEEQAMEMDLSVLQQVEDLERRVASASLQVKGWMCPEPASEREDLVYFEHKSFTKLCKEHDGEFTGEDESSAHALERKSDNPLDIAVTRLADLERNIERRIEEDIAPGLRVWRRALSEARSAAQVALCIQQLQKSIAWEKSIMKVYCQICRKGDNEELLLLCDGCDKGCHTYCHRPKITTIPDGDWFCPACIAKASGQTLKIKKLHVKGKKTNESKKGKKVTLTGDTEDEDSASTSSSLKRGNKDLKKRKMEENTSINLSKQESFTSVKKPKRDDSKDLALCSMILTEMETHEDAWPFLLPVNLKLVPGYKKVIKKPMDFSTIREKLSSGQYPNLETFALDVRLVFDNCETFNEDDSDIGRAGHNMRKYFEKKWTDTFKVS

**Q.** For CC1=NN(c2ccc(Cl)c(C(=O)O)c2)C(=O)/C1=C/c1ccc(-c2ccccc2[N+](=O)[O-])o1, which Potency is on record?
**A.** inconclusive: 44.7 µM [inhibitor, partial curve]

**Q.** For COc1ccc(C)cc1Nc1n[n+](-c2ccccc2)c(-c2ccc(SC)cc2)s1, which Potency is on record?
**A.** active: 56.2 µM

**Q.** For O=C(O)c1ccc(N/N=C/C=C/c2ccc([N+](=O)[O-])o2)cc1, which Potency is on record?
**A.** active: 39.8 µM

**Q.** O=C(NCCS(=O)(=O)N1CCN(c2ccccc2)CC1)C(c1ccccc1)c1ccccc1 was tested. Which “activity change, negative = inhibition” value did it give?
**A.** inactive: 4.71%

**Q.** For COc1ccc(OCCCCn2c(CO)nc3ccccc32)cc1, which Potency is on record?
**A.** inconclusive: 89.1 µM [inhibitor, single point]

**Q.** For CCCN(Cc1ccccc1)C(=S)NC(=O)c1ccccc1[N+](=O)[O-], which Potency is on record?
**A.** inconclusive: 31.6 µM [inhibitor, partial curve]

**Q.** With CN(C)c1ccc(C(=O)/C=C/c2cccnc2)cc1 as the compound, how does the Potency read?
**A.** inconclusive: 44.7 µM [inhibitor, partial curve]

**Q.** For N#Cc1nc(COc2ccccc2F)oc1NCCc1ccccc1, which Potency is on record?
**A.** inconclusive: 44.7 µM [inhibitor, partial curve]

**Q.** For COc1ccc(C2c3c(oc4ccc(F)cc4c3=O)C(=O)N2Cc2ccc3c(c2)OCO3)cc1 (configuration not stated), which Potency is on record?
**A.** inconclusive: 79.4 µM [inhibitor, single point]

**Q.** With Cc1ccc(-c2nn3c(C)nnc3s2)cc1NC(=O)c1ccco1 as the compound, how does the Potency read?
**A.** inconclusive: 89.1 µM [inhibitor, single point]

**Q.** How did the Potency turn out when COc1ccc(-n2c(C)cc(C(=O)COc3ccc(C)nc3[N+](=O)[O-])c2C)cc1 was run?
**A.** inconclusive: 39.8 µM [inhibitor, partial curve]

**Q.** Cc1cc(/C=N/NC(N)=S)c(O)c(/C=N/NC(N)=S)c1 was tested. Which Potency did it give?
**A.** active: 3.16 µM

**Q.** With O=C(O)COCC(=O)Nc1ccccc1-c1ccccc1 as the compound, how does the Potency read?
**A.** inconclusive: 89.1 µM [inhibitor, single point]

**Q.** With CCN1C(=O)/C(=C2/C=CC=CN2C)SC1=S as the compound, how does the Potency read?
**A.** inconclusive: 89.1 µM [inhibitor, single point]

**Q.** C/C=C\C=C\C(=O)N1CC2(CC(c3cccc(NC(=O)CC(c4ccccc4)c4ccccc4)c3)=NO2)C[C@H]1C(N)=O (some centres not stated) was tested. Which Potency did it give?
**A.** inconclusive: 50.1 µM [inhibitor, partial curve]

**Q.** For COc1cccc(CC(NC(C)=O)C(=O)NC2CCN(C(=O)C3CCCCC3)CC2)c1OC (configuration not stated), which “activity change, negative = inhibition” value is on record?
**A.** inactive: -0.712%

**Q.** How did the “activity change, negative = inhibition” value turn out when CC(=O)N(Cc1cccnc1)c1nc2c(C)c(C)ccc2s1 was run?
**A.** inactive: -20.3%

**Q.** For CCOc1cc(/C=N/N=C2/NC(=O)C(CC(=O)O)S2)ccc1OCc1ccc(Cl)cc1Cl (configuration not stated), which Potency is on record?
**A.** active: 28.2 µM

**Q.** How did the Potency turn out when O=C(O/N=C\c1ccc(N2CCOCC2)c([N+](=O)[O-])c1)c1ccc(F)cc1 was run?
**A.** inconclusive: 11.2 µM [inhibitor, partial curve]

**Q.** With CCc1ccc2c(c1)NC(c1cccs1)=NC(c1ccc(F)cc1)=N2 as the compound, how does the Potency read?
**A.** inconclusive: 44.7 µM [inhibitor, partial curve]

**Q.** How did the Potency turn out when Cc1cccc(C2Nc3cccc4cccc(c34)N2)c1 was run?
**A.** inconclusive: 44.7 µM [inhibitor, partial curve]

**Q.** CC(C)Cn1c(SC(C)C(=O)Nc2ccc(N3CCOCC3)cc2)nc2ccccc21 (configuration not stated) was tested. Which Potency did it give?
**A.** active: 35.5 µM

**Q.** With COc1ccc(-c2nc(SCC(=O)NCCc3ccc(OC)c(OC)c3)n[nH]2)cc1 as the compound, how does the “activity change, negative = inhibition” value read?
**A.** inactive: 1.96%

**Q.** How did the activity change, negative = inhibition turn out when CCOc1ccc(Nc2nc(N)c3ccccc3n2)cc1 was run?
**A.** inconclusive: -47.8% [inhibitor]

**Q.** With COc1ccc(Nc2nc(NCCCN3CCOCC3)nc(N)c2[N+](=O)[O-])cc1 as the compound, how does the “activity change, negative = inhibition” value read?
**A.** inactive: -23.2%

**Q.** With CCCc1cc(C(N)=O)c(NC(=O)c2ccoc2C)s1 as the compound, how does the “activity change, negative = inhibition” value read?
**A.** inactive: -36.1%

**Q.** With OCc1cc(CO)c(O)c(CCc2ccccc2)n1 as the compound, how does the “activity change, negative = inhibition” value read?
**A.** inactive: -6.68%

**Q.** How did the Potency turn out when CC(C)NCC(O)Cn1c2c(c3ccccc31)CCc1c-2cnn1-c1ccccc1 (configuration not stated) was run?
**A.** inconclusive: 44.7 µM [inhibitor, partial curve]

**Q.** With COC(=O)c1ccc(Cn2nnc3sc4c(c3c2=O)CCC(C)C4)cc1 (configuration not stated) as the compound, how does the Potency read?
**A.** inconclusive: 89.1 µM [inhibitor, single point]

**Q.** With CCOc1ccccc1CNC(=O)CCn1ccc2cc(S(=O)(=O)N3CCC(C)CC3)ccc21 as the compound, how does the “activity change, negative = inhibition” value read?
**A.** inactive: -9.42%

**Q.** O=C(CCc1nnc2ccc(N3CCC4(CC3)OCCO4)nn12)NCc1ccccc1Cl was tested. Which “activity change, negative = inhibition” value did it give?
**A.** inactive: -6.83% [at 57.1 µM]

**Q.** How did the Potency turn out when O=c1cnnc(N/N=C/C2CC=CCC2)[nH]1 (configuration not stated) was run?
**A.** active: 8.91 µM

**Q.** COc1ccc(NC(=O)Cn2c(=O)oc3cc(S(=O)(=O)N4CCC(C)CC4)ccc32)c(OC)c1 was tested. Which “activity change, negative = inhibition” value did it give?
**A.** inactive: -16.4%

**Q.** How did the Potency turn out when Cc1cc2c(=O)[nH]cnc2s1 was run?
**A.** inconclusive: 11.2 µM [inhibitor, single point]

**Q.** O=C(CSc1nn(-c2ccccc2)c(=S)s1)NC(=O)NCc1ccco1 was tested. Which Potency did it give?
**A.** inconclusive: 89.1 µM [inhibitor, single point]

**Q.** For CN(C)/C=N/c1sc2c(c1C#N)CCCC2, which Potency is on record?
**A.** inconclusive: 89.1 µM [inhibitor, partial curve]

**Q.** With CCOC(=O)C1=C(COC(=O)COc2ccc(C(=O)CC)cc2)NC(=O)NC1C (configuration not stated) as the compound, how does the “activity change, negative = inhibition” value read?
**A.** inactive: 9.82%

**Q.** How did the Potency turn out when COc1cccc(Oc2ccc(S(=O)(=O)N3CCCC3)cc2[N+](=O)[O-])c1 was run?
**A.** inconclusive: 79.4 µM [inhibitor, partial curve]

**Q.** Cc1cccc(NS(=O)(=O)c2ccc3oc(=O)c4ncn(C)c4c3c2)c1C was tested. Which “activity change, negative = inhibition” value did it give?
**A.** inactive: -7.48%

**Q.** Which Potency does the source give for O=C(c1ccc(-c2ccc([N+](=O)[O-])cc2)o1)N1CCCC(C(F)(F)F)C1 (configuration not stated) here?
**A.** inconclusive: 35.5 µM [inhibitor, partial curve]

**Q.** With O=C(COC(=O)c1cnccn1)NCc1ccccc1 as the compound, how does the Potency read?
**A.** inconclusive: 89.1 µM [inhibitor, single point]

**Q.** With CC(=O)Nc1cccc(C(=O)NC2CCCc3c2cnn3-c2ccc(C(C)(C)C)cc2)c1 (configuration not stated) as the compound, how does the Potency read?
**A.** inconclusive: 89.1 µM [inhibitor, partial curve]

**Q.** Cc1cccc(CSC(Nc2ccc(F)cc2)=C(C#N)C#N)c1 was tested. Which Potency did it give?
**A.** inconclusive: 70.8 µM [inhibitor, single point]

**Q.** Which Potency does the source give for O=[N+]([O-])c1cc(/C=N/O)ccc1N1CCCC1 here?
**A.** inconclusive: 50.1 µM [inhibitor, partial curve]

**Q.** Which “activity change, negative = inhibition” value does the source give for COc1ccc(C(=O)Nc2nc3ccccc3s2)cc1OC here?
**A.** inactive: 3.27%

**Q.** For O=C(O)Cc1cn(Cc2ccc(F)cc2)c2ccccc12, which “activity change, negative = inhibition” value is on record?
**A.** inactive: -13.7%

**Q.** How did the Potency turn out when Cc1ccc(NC(=O)c2cc(-c3ccco3)on2)cc1C was run?
**A.** inconclusive: 89.1 µM [inhibitor, single point]

— PubChem BioAssay AID504333 (National Center for Advancing Translational Sciences (NCATS), 2011)
